# Test results: PubChem BioAssay AID1865 (National Center for Advancing Translational Sciences (NCATS), 2009)
# The campaign covered roughly 280,000 compounds. About 540 (0.19%) were called active. The shares of active, inactive and inconclusive entries below differ from those in the screen. Calls follow the shape of the dose curve; as a rule, active = well fitted activation curve with a large enough effect; inconclusive = small, poorly fitted or top-dose-only effect; inactive = flat fitted curve, though single readings scatter. Potencies beside an inconclusive call are fits to weak or partial responses and may not hold up.
# Experiment: Quantitative High-Throughput Screen for Regulators of Epigenetic Control; also: nearly all actives have a fitted effect of over 60% in size; as to GFP activation: % of control where 0% means no effect
# Details: murine LDR cells, GFP reporter derepression, 30 h; GFP activation: at 53.9 µM (top of the series)
# Summary of the method: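 Murine LDR cells bearing a silenced CMV-driven GFP reporter were exposed to compound for 30 h at 37 C. After PBS washes, GFP-positive cells (20-120 um objects) counted by laser-scanning microplate cytometry.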
# Potency is read from the fitted curve at half-maximal effect; tags tell the direction and shape of the fitted curve.
SMILES,Potency,GFP activation
CC1=C(C)CS(=O)N(c2ccc(S(N)(=O)=O)cc2)C1 (centres undefined),"inconclusive: 14.1 µM [activator, single point]",
Cc1cccc(-c2nc(NCCCN3CCOCC3)c3ccccc3n2)c1,,inactive: 7.2%
Cc1ccc2nc(-c3ccc(Cl)c(NC(=O)COc4cccc(C)c4C)c3)oc2c1,,inactive: -0.242%
COc1cccc(CNC(=O)CCc2c(C)nc3c(c(C)nn3-c3ccc(C)c(C)c3)c2C)c1,,inactive: -0.694%
NC(=O)CSc1nnc(-c2ccc(S(=O)(=O)N3CCOCC3)cc2)n1Cc1ccccc1,"inconclusive: 5.62 µM [activator, single point]",
COc1ccc(C(C)NC(=O)c2cccc([N+](=O)[O-])c2)cc1OC (centres undefined),"inconclusive: 35.5 µM [activator, single point]",
CCCCc1ccc(/C=C2\C(=O)c3ccccc3C(O)=C2C(=O)OCC)cc1,"inconclusive: 35.5 µM [activator, single point]",
CCN(CC)CCn1c(C)nc2ccccc21,,inactive: 0.139%
Cc1ccccc1NC(=S)NNc1ncc(C(F)(F)F)cc1Cl,,inactive: -1.36%
COc1cc(S(=O)(=O)Nc2ccc(C)cc2)ccc1N=Cc1c(C)c(C#N)c(=O)n(C)c1O,"inconclusive: 25.1 µM [activator, single point]",
COc1ccc(-c2cc(C(=O)NNC3=NCCC3)c3c(C)nn(-c4ccccc4)c3n2)cc1,"inconclusive: 5.62 µM [activator, single point]",
Cc1oc2c(c1C(=O)Nc1ccccc1Br)C1=NCCN1C=N2,,inactive: 0%
CC(C)C(=O)Nc1nnc(S(=O)(=O)N2CCCCCC2)s1,"inconclusive: 25.1 µM [activator, single point]",
Cc1ccc(Nc2nc3ccc(C)cc3nc2-n2nc(C)cc2C)c(C)c1,,inactive: 2.44%
Cc1cc(C)cc(-n2c3nc4ccccc4nc3c3c(=O)n(Cc4ccco4)cnc32)c1,"inconclusive: 35.5 µM [activator, single point]",
Cc1c(C(=O)Nc2cccc(F)c2)oc2c1-c1nn(Cc3c(F)cccc3Cl)cc1CC2,"inconclusive: 28.2 µM [activator, single point]",
O=C(Nc1ccc(Nc2ccccc2)cc1)N1CCOCC1,,inactive: -1.08%
Cc1cc(=O)c2c(O)c3c(O)cc(=O)c4c3c3c(cc(O)c1c23)C(C)(C)C=4O,active: 15.8 µM,
CN(C)C=Nc1ccc2nn(-c3ccccc3)nc2c1,,inactive: 1.16%
CCN(CC(=O)Nc1ccccc1SC)Cc1nc2ccccc2c(=O)[nH]1,"inconclusive: 35.5 µM [activator, single point]",
Cc1[nH]c2ccccc2c1/C=C/C(=O)c1ccncc1,"inconclusive: 31.6 µM [activator, single point]",
Cc1cc(C)c2nc(-c3ccccn3)cc(C(=O)NCCc3ccc(S(N)(=O)=O)cc3)c2c1,,inactive: 5.08%
CCc1ccccc1NC(=O)CSc1nc(C)c(C(=O)Nc2ccccc2)c(-c2ccc(Cl)cc2)c1C#N,"inconclusive: 22.4 µM [activator, single point]",
CCOC(=O)C1=C(C)c2ccccc2N(C(=O)OC)C1(C)C(=O)OCC (centres undefined),"inconclusive: 15.8 µM [activator, single point]",
N#Cc1c(Nc2ccccc2Cl)s[nH]c1=O,"inconclusive: 5.62 µM [activator, single point]",

SMILES,Potency,GFP activation
Cc1cc2c(N)cccc2nn1,,inactive: 0.901%
CCOC(=O)c1cc(-c2ccc(OC)cc2)n(CCC(=O)NCc2ccccc2OC)c1C,,inactive: 7.45%
CCSc1nnc(NC(=O)C2CC(=O)N(Cc3ccc(C)cc3)C2)s1 (centres undefined),"inconclusive: 10 µM [activator, partial curve]",
O=C(NC(=O)N1CCN(c2cccc(Cl)c2)CC1)c1ccccc1,,inactive: 0.265%
COc1ccc(C2(C(=O)c3ccccc3)C(=O)c3ccccc3C2=O)cc1,,inactive: 0.0818%
Cc1ccc(NC(=O)CC2SC3=NCCN3C2=O)cc1 (centres undefined),"inconclusive: 35.5 µM [activator, single point]",
Clc1ccc(OCc2nc3ccccc3[nH]2)cc1,"inconclusive: 6.31 µM [activator, single point]",
Cn1ccnc1Sc1cc(NCCCO)c([N+](=O)[O-])c2nonc12,"inconclusive: 5.62 µM [activator, single point]",
CC(NC(=O)c1ccc(NC(=O)c2nsc3ccccc23)cc1)c1ccccc1 (centres undefined),"inconclusive: 22.4 µM [activator, single point]",
Cc1cccc(Nc2nnc(SC/C(O)=C(\C#N)c3nc4ccccc4[nH]3)s2)c1,,inactive: -0.437%
CN1/C(=C\P(=O)(N(C)C)N(C)C)C(C)(C)c2ccccc21,,inactive: -1.08%
COC(=O)C(CC(=O)c1ccc(Br)cc1)n1ccnc1 (centres undefined),"inconclusive: 5.62 µM [activator, single point]",
CCc1ccc(NC(=O)C2CCC(CNS(=O)(=O)c3ccc4c(c3)CC(C)N4C(C)=O)CC2)cc1 (centres undefined),"inconclusive: 1.58 µM [activator, partial curve]",
CC(C)N=C1NN=C(c2cccs2)CS1,,inactive: 1.14%
COc1ccc(OC)c(C(=O)c2c(N)c(-c3nc(-c4ccc(C)c(C)c4)cs3)c3ccccn23)c1,"inconclusive: 35.5 µM [activator, single point]",
C=CCCC/C=C(/C)C(OCc1ccc(OC)cc1)C(CC/C=C(\C)C(N)=O)OC (centres undefined),,inactive: 0% [at 10.1 µM]
O=[N+]([O-])c1cccc(-c2n[nH]c(=S)n2Cc2ccccc2)c1,,inactive: 0%
Cc1ccc(S(=O)(=O)c2nnn(-c3cccc(F)c3)c2N)cc1,,inactive: -7.81%
OCCCCNCc1ccc(OCc2ccc(Cl)cc2Cl)cc1,,inactive: 3.23%
Cc1ccc(-c2onc(C)c2C)cc1S(=O)(=O)N1CCc2ccccc21,"inconclusive: 12.6 µM [activator, partial curve, poor fit]",
O=C(Nc1nc(-c2cc(F)ccc2F)cs1)C1=NN(c2ccccc2)C(=O)CC1,,inactive: 3.31%
CN(C)c1ccc(NC(=S)c2ccccn2)cc1,"inconclusive: 22.4 µM [activator, single point]",
O=C(/C=C/c1ccccc1O)c1ccc(Cl)cc1,"inconclusive: 31.6 µM [activator, single point]",
CC1=CC(C)(C)Nc2ccc(OS(=O)(=O)c3ccc(C)cc3)cc21,"inconclusive: 20 µM [activator, single point]",
Cn1c(=O)c(C(=S)NC(=O)C2CC2)c(N)n(Cc2ccccc2)c1=O,"inconclusive: 25.1 µM [activator, single point]",

SMILES,Potency,GFP activation
Cn1c(=O)c(Nc2ccc(Cl)cc2)c2c3c(cccc31)C(=O)c1ccccc1-2,"inconclusive: 31.6 µM [activator, single point]",
COC(=O)C1(C)Cc2cc(OC(C)=O)c(OC(C)=O)cc2N1 (centres undefined),"inconclusive: 35.5 µM [activator, single point]",
Cc1nc2c3cc(Cl)ccc3n(CCN3CCCCC3)c2s1,,inactive: 6.77%
CN1CCN(C(=O)/C=C/c2ccc([N+](=O)[O-])o2)CC1,"inconclusive: 5.62 µM [activator, single point]",
CC(=O)Nc1cccc(C(=O)/C=C/c2ccc(Br)cc2)c1,"inconclusive: 25.1 µM [activator, single point]",
CC1(C)OC(c2ccccc2)=C/C(=C/C=Nc2ccccc2)O1,"inconclusive: 31.6 µM [activator, single point]",
Cc1ccc(CNC(=O)CCN2C(=O)C(C)Oc3ccc(C)cc32)cc1 (centres undefined),,inactive: -2.45%
O=C(Nc1ccccc1)C1=C[C@H](c2ccc3c(c2)OCO3)C[C@H](OCc2ccc(CO)cc2)O1,"inconclusive: 6.31 µM [activator, single point]",
Cc1ccc(-c2nc3ncccc3o2)cc1NC(=S)NC(=O)c1ccco1,,inactive: 1.92%
NC(=O)c1ccccc1NC(=O)CCc1ccccc1,,inactive: 2.95%
Cc1cc(C=C2C(=O)c3ccccc3C2=O)c(C)n1-c1ccccc1,,inactive: 1.06%
CCN(CC)c1ccc(NC(=S)Nc2ccc(F)cc2)cc1,,inactive: 1.28%
CCOc1ccc2nc(NCCCNS(=O)(=O)c3ccc(C)cc3)c(C#N)cc2c1,"inconclusive: 5.62 µM [activator, full curve]",
CCn1c(-c2cc3c(C(F)(F)F)nn(C)c3s2)n[nH]c1=S,,inactive: -1.92%
COC(=O)c1c(C)[nH]c(C(=O)CC#N)c1C,"inconclusive: 10 µM [activator, partial curve]",
O=C(NCCC1=CCCCC1)c1coc(=O)c(Br)c1,"inconclusive: 31.6 µM [activator, single point]",
Cc1ccc(C(=O)N2CCc3cc(CNC(=O)c4ccccc4F)ccc32)cc1,,inactive: -1.3%
CCCn1c(SCCc2ccccc2)nc2c1c(=O)[nH]c(=O)n2C,"inconclusive: 4.47 µM [activator, single point]",
COC(=O)c1c(-c2ccccc2)csc1N,,inactive: -0.709%
C=CCC(Nc1ccccc1)C12C=CC(O1)C(C(=O)OC)=C2C(=O)OC (centres undefined),"inconclusive: 5.01 µM [activator, single point]",
CCCOc1ccc(C(=O)Nc2cccc(NC(=O)c3ccc(Cl)cc3Cl)c2)cc1,"inconclusive: 28.2 µM [activator, single point]",
O=C(CSc1nc2c([nH]c3ccccc32)c(=O)n1-c1ccc(F)cc1)Nc1ccc2c(c1)OCO2,"inconclusive: 15.8 µM [activator, single point]",
COc1ccc2c(c1)c(=O)c(C(=O)c1ccc(Cl)cc1)cn2CC(=O)Nc1ccc(F)cc1,"inconclusive: 35.5 µM [activator, single point]",
BrC(=C\c1ccccc1)/C=N/Nc1nc(N2CCOCC2)nc(N2CCOCC2)n1,"inconclusive: 31.6 µM [activator, single point]",
